Source: PubChem BioAssay (NCI)
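Test compounds were applied to cells in 96-well plates for 48 hours at 5 doses. GI50 = concentration required for 50% inhibition of growth. TGI is the concentration that stops growth completely.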

Test system: NCI-H322M lung
Assay: DTP human tumour cell line panel, 48 h

Structure (SMILES) | GI50 [µM] | TGI [µM]
CC12OOC(C)(OO1)C2CCC(=O)OCCNc1ccnc2cc(Cl)ccc12 (centres undefined) | > 18.3 | > 18.3
COc1ccc(-c2ccnc(SCc3cc4ccccc4[nH]c3=O)n2)cc1OC | 13.5 | 31.5
